Source: PubChem BioAssay AID492947 (National Center for Advancing Translational Sciences (NCATS), 2010)
Screen size: about 330,000 compounds; about 80 (0.02%) were called active. This list was built around the results that the source calls inconclusive (neither active nor inactive); the mix of calls is not that of the screen. The call rests on the fitted dose curve; in most records, active means well fitted activation curve with a large enough effect; inconclusive means small, poorly fitted or top-dose-only effect; inactive means flat fitted curve, though single readings scatter. No potency is given beside an inconclusive call; the fits are too rough.

What follows are molecules tested against Beta-2 adrenergic receptor (Homo sapiens) (UniProt P07550) (assay: qHTS assay of beta-arrestin-biased ligands of beta2-adrenergic receptor). Conditions: beta-arrestin recruitment to beta2AR, cell-based reporter; series mostly up to 46.1 µM.
Summary of the method: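 Screening used a titration range of up to 46 microM in a beta-arrestin recruitment Tango luciferase assay. Cells in 1% FBS medium were treated 18 hr at 37 degrees C, and luminescence was normalized to %Activity.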
Further: nearly all actives have a fitted effect of over 65% in size.
Potency means the concentration at half of the fitted maximal effect; tags describe the fitted curve by direction and shape.

Sequence of UniProt P07550 (P07550 whole entry, looked up): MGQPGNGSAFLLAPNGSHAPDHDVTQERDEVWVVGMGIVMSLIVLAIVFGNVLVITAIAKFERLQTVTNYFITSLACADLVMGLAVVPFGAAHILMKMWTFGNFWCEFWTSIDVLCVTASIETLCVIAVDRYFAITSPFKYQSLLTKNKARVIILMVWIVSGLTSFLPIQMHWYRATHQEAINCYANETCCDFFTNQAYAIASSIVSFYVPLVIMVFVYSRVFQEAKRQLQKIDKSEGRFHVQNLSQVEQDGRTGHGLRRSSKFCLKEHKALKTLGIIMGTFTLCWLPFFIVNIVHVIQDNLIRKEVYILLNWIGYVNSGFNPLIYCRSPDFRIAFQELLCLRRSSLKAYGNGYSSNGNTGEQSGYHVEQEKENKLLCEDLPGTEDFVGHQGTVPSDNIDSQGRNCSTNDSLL

| Structure (SMILES) | Potency |
| --- | --- |
| Cc1cc(N2CCCC2)ccc1/C=C1\NC(=S)N(C)C1=O | inconclusive [rising, single point] |
| Cc1ccc2nc(Cl)c(C3CC(c4cccs4)=NN3C(=O)CCCC(=O)O)cc2c1 (configuration not stated) | inconclusive [rising, single point] |
| O=C(NCC1CCN(Cc2ccccc2F)CC1)C1CCCN(c2ncnc3c2nc2n3CCCCC2)C1 (configuration not stated) | inactive |
| CN(C)S(=O)(=O)c1cccc(NC(=S)N/N=C/c2ccco2)c1 | inconclusive [rising, single point] |
| OCc1ccnc2c(O)cccc12 | inconclusive [rising, single point] |
| COc1ccccc1N1CCN(Cc2ccc(-c3ccccc3[N+](=O)[O-])o2)CC1 | inactive |
| S=C(NCc1ccccc1)NNc1ccccc1 | inconclusive [rising, single point] |
| S=c1[nH]nc(-c2cccnc2)n1Cc1ccccc1 | inactive |
| Cc1ccc(C)c(NC(=S)NNc2ccc(F)cc2F)c1 | inconclusive [activator, partial curve] |
| CCOC(=O)C1=C(C)N=c2s/c(=C3/C(=O)Nc4ccccc43)c(=O)n2C1c1ccc(C)cc1 (configuration not stated) | inconclusive [rising, single point] |
| c1ccc(C(c2nnnn2C2CCCCC2)N2CCc3ccccc3C2)nc1 (configuration not stated) | inactive |
| COCC(=O)Nc1cc(C(=O)NCCc2ccccc2)ccc1Cl | inconclusive [rising, single point] |
| CC(=O)Nc1cccc(C(=O)/C=C/c2ccc(/C=C/C(=O)c3cccc(NC(C)=O)c3)cc2)c1 | inconclusive [rising, single point] |
| Cc1ccc(NC(=O)c2cc(C)nc3ccccc23)cc1 | inactive |
| CCOc1cc(/C=N\Nc2nc(-c3ccc(C)cc3)c(NC(C)=O)s2)ccc1O | inconclusive [rising, single point] |
| CC(C)NC(=O)COC(=O)/C=C/c1ccco1 | inconclusive [rising, single point] |
| COc1ccc(CNC(=S)Nc2cc(OC)ccc2OC)cc1 | inactive |
| CCOc1ccc(NC(=S)NC(=O)C2CCCC2)cc1 | inconclusive [rising, single point] |
| O=C(NCCO[N+](=O)[O-])c1cccnc1 | inconclusive [rising, single point] |
| Cc1onc(-c2c(F)cccc2Cl)c1C(=O)NCc1ccccn1 | inactive |
| Cn1c(=O)oc2cc(S(=O)(=O)N3CCCc4ccccc43)ccc21 | inactive |

| Structure (SMILES) | Potency |
| --- | --- |
| O=C1CCCC(=O)N1c1ccc(N2CCN(c3ccccc3)CC2)c([N+](=O)[O-])c1 | inconclusive [rising, single point] |
| CCCCNS(=O)(=O)c1ccc2nc(SCC(=O)c3ccc(C#N)cc3)[nH]c2c1 | inactive |
| CNC(=S)N/N=C(\C)c1ccccc1 | inconclusive [rising, single point] |
| C/C(=N\NC(=O)c1ccco1)c1ccc(NC(=O)C(F)(F)F)cc1 | inconclusive [rising, single point] |
| O=C(O)CC1S/C(=N/N=C2CCCCC2)N(c2ccccc2)C1=O (configuration not stated) | inconclusive [rising, single point] |
| C=CCNC(=S)N/N=C/c1cn(C)c2ccccc12 | inconclusive [rising, single point] |
| CC(C)(C)NC(=S)NCc1ccc2c(c1)OCO2 | inconclusive [activator, partial curve] |
| Cc1occc1C(=O)N1N=C(C2CC2)CC1(O)C(F)(F)F (configuration not stated) | inactive |
| C=CCn1c(-c2ccccc2)c[nH]c1=S | inconclusive [rising, single point] |
| CC1CC(C)CN(CCCNC(=O)C2CCCN(c3ncnc4c3nc3n4CCCCC3)C2)C1 (configuration not stated) | inactive |
| Oc1c(CN2CCN(c3ccccn3)CC2)cc(Cl)c2cccnc12 | inconclusive [rising, full curve, poor fit] |
| Cc1cc(Br)cc(Br)c1OCC(=O)NNC(=O)c1ccoc1C | inactive |
| CNc1nc(-c2ccc3c(c2)CCN3C(=O)c2cccc(F)c2)cs1 | inconclusive [rising, single point] |
| COc1c(-c2ccc(O)c(O)c2)oc2cc(O)cc(O)c2c1=O | inconclusive [rising, single point] |
| O=C(N/N=C/c1c(O)ccc2ccccc12)c1ccc(Br)o1 | inactive |
| Cn1cccc1CC(=O)NNC(=S)Nc1ccc(Cl)cc1 | inactive |
| COc1ccc(NC(=O)CSc2n[nH]c(-c3ccccn3)n2)cc1 | inactive |
| Cc1c(Br)cc(C(=O)O)c(C)c1C | inactive |
| CCn1c(CCl)nc2cc(S(=O)(=O)N3CCOCC3)ccc21 | inconclusive [rising, single point] |
| CC(=O)c1ccc(OCC(O)CN2CCN(c3ccc(F)cc3)CC2)cc1 (configuration not stated) | inactive |
| O=c1c2ccccc2nc2c3ccccc3c(NCc3ccccn3)nn12 | inactive |

| Structure (SMILES) | Potency |
| --- | --- |
| Oc1ccc(N=Cc2ccc(OCc3ccccc3)cc2)cc1 | inconclusive [rising, single point] |
| CCCCCCCCCOC(=O)C(CC(=O)O)N1CCOCC1 (configuration not stated) | inactive |
| CCOCCCNC(C(=O)Nc1ccc(OC)c(Cl)c1)c1ccccc1 (configuration not stated) | inconclusive [rising, full curve, poor fit] |
| COc1ccc(CNc2nc(SCC(=O)NCc3ccco3)nc3ccccc23)cc1 | inconclusive [activator, partial curve] |
| COc1ccc2nc(/C(C#N)=C\c3ccc(Oc4ccc([N+](=O)[O-])cn4)cc3)[nH]c2c1 | inactive |
| CCCOc1ccc(C(=O)Nc2nc(C)c(Cc3ccc4c(c3)OCO4)s2)cc1 | inconclusive [rising, single point] |
| Cc1ccccc1Cn1cccc1/C=C1/C(=N)N2C=CSC2=NC1=O | inactive |
| Nc1nc2c(s1)COc1ccccc1-2 | inactive |
| N#CC1=C(N)SC(C(=O)c2ccccc2)C1c1cccs1 (configuration not stated) | inconclusive [rising, single point] |
| CN(CC(=O)NCCCN1CCOCC1)S(=O)(=O)c1ccc(Cl)cc1 | inconclusive [rising, single point] |
| Cc1ccc(Nc2c(-c3ccccn3)nc3cccc(C)n23)cc1 | inconclusive [rising, single point] |
| COc1cc2c(cc1OC)C(c1ccccc1O)NCC2 (configuration not stated) | inactive |
| Cc1ccc(/C(N)=N/OC(=O)c2ccc(Cl)cc2Cl)cc1 | inconclusive [rising, single point] |
| NNC(=S)NCc1ccco1 | inconclusive [rising, single point] |
| N#CC1=C(N)N2C(=C(C#N)C13CCN(Cc1ccccc1)CC3)Nc1ccccc12 | inconclusive [rising, single point] |
| c1ccc2[nH]c(CSc3nnc(-c4ccncc4)o3)nc2c1 | inactive |
| CC(C)Cn1c(SC(C)C(=O)NCC2CCCO2)nc2ccc(Cl)cc2c1=O (configuration not stated) | inactive |
| C=CC[n+]1c(-c2ccc(OC)c(OC)c2)csc1NNC(=O)Nc1ccccc1 | inconclusive [rising, single point] |
| CN(C)c1ccc(N=C/C=C2/N(C)c3ccccc3C2(C)C)cc1 | inactive |
| O=C1C(Cc2ccc(Br)cc2)SC(=Nc2ccccc2)N1c1ccccc1 (configuration not stated) | inconclusive [rising, single point] |
| CCOC(=O)c1c(C)[nH]c(N=Nc2ccc(C)cc2C)c1C | inconclusive [rising, single point] |

| Structure (SMILES) | Potency |
| --- | --- |
| CCC(=O)NC(c1cccs1)c1ccc2cccnc2c1O (configuration not stated) | active: 12.6 µM |
| Cc1ccc(-c2csc3nc[nH]c(=S)c23)cc1 | inconclusive [rising, single point] |
| Oc1ccc(N=Cc2ccc(-c3cccs3)s2)cc1 | inconclusive [rising, single point] |
| CC(=O)C1=C(c2ccc(Br)cc2)C(=O)c2ccccc2C1=O | inactive |
| CC1=C(C(=O)Nc2ccccn2)C(c2ccc(Cl)cc2)NC(=S)N1 (configuration not stated) | inactive |
| CCCN1CCN(CCNC(=O)Nc2ccccc2Cl)CC1 | inactive |
| COc1ccc(CCNS(=O)(=O)c2cc3c4c(c2)CCN4C(=O)CC3)cc1 | inactive |
| CCOc1ccc(NC(=S)NC(=O)c2ccco2)cc1 | inconclusive [rising, single point] |
| NC(=S)Nc1nc2ccccc2s1 | inconclusive [rising, single point] |
| Cc1ccc2nc(C)c(C(=O)N/N=C/c3cccs3)n2c1 | inconclusive [rising, single point] |
| NC(=S)n1[nH]c(-c2ccc([N+](=O)[O-])cc2)c(N=Nc2ccc(Cl)cc2)c1=O | active: 15.8 µM |
| Cn1cccc1/C=N/NC(=O)Cc1ccccc1 | inactive |
| O=C(NCc1cccc(Cl)c1)C1CCC(=O)N(CCN2CCOCC2)C1 (configuration not stated) | inactive |
| CCOC(=O)/C=C/C(=O)Nc1ccc(S(=O)(=O)N(C)c2ccccc2)cc1 | inactive |
| COc1ccc(C(=O)Nn2c(SCC(=O)NC3CCCC3)nc3ccccc3c2=O)cc1 | inactive |
| COc1ccc(C(C#N)=C2C=CC(=NO)C=C2)cc1 | inactive |
| O=C(CSc1cccc[n+]1[O-])c1cc2ccccc2o1 | inconclusive [rising, single point] |
| Oc1ccc(CN2CCN(Cc3ccccc3)CC2)c2cccnc12 | inactive |
| CC(=O)CC1OC(=O)C(Br)=C1NCc1ccccc1 (configuration not stated) | inconclusive [activator, partial curve] |
